Experimental data reported in the supplement of paper PMC4604168 (melanoma cell lines).
Some of the results follow. Single values are uncertain, as repeats are few or missing.

What follows are compounds tested on IPC-298 (assay: cell count relative to DMSO control; melanoma cells; higher = more viable cells). Details: library dose: standard library concentration; 72 h.
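Also: cells treated in 1,536-well plates, then fixed and DAPI-stained, with nuclei counted from automated high-throughput microscope images.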

Q: With COc1cc([C@@H]2c3cc4c(cc3[C@@H](O[C@@H]3O[C@@H]5CO[C@@H](C)O[C@H]5[C@H](O)[C@H]3O)[C@H]3COC(=O)[C@H]23)OCO4)cc(OC)c1O [etoposide] + Cn1c(Nc2ccc(C(F)(F)F)cc2)nc2cc(Oc3ccnc(-c4ncc(C(F)(F)F)[nH]4)c3)ccc21 [CHIR265] (first compound 0.1 µM, partner dose 0.4 µM) as the compound, how does the cell count read?
A: 36.9%

Q: For Cn1cnc2c(F)c(Nc3ccc(Br)cc3Cl)c(C(=O)NOCCO)cc21 [selumetinib] + O=c1cc(-c2cccc3c2Sc2ccccc2S3)oc(N2CCOCC2)c1 [KU55933] (first compound 0.075 µM, partner dose 5 µM), which cell count is on record?
A: 45.4%

Q: For C[C@]1(O)C[C@@H](c2nc(-c3ccc4ccc(-c5ccccc5)nc4c3)c3c(N)nccn32)C1 + Nc1ncn([C@H]2C[C@H](O)[C@@H](CO)O2)c(=O)n1 [decitabine] (first compound 2 µM, partner dose 0.5 µM), which cell count is on record?
A: 67.9%

Q: COc1cc([C@@H]2c3cc4c(cc3[C@@H](O[C@@H]3O[C@@H]5CO[C@@H](C)O[C@H]5[C@H](O)[C@H]3O)[C@H]3COC(=O)[C@H]23)OCO4)cc(OC)c1O [etoposide] + O=C(Nc1ccccc1)c1cc([N+](=O)[O-])ccc1Cl [GW9662] (first compound 0.1 µM, partner dose 10 µM) was tested. Which cell count did it give?
A: 84.1%

Q: With CCN(CC)CCNC(=O)c1c(C)[nH]c(/C=C2\C(=O)Nc3ccc(F)cc32)c1C [sunitinib] + NC1(c2ccc(-c3nc4ccn5c(=O)[nH]nc5c4cc3-c3ccccc3)cc2)CCC1 [MK2206] (first compound 2 µM, partner dose 2 µM) as the compound, how does the cell count read?
A: 59.6%

Q: Which cell count does the source give for Cn1cnc2c(F)c(Nc3ccc(Br)cc3Cl)c(C(=O)NOCCO)cc21 [selumetinib] + COCC[n+]1c2c(n(Cc3cnccn3)c1C)C(=O)c1ccccc1C2=O [YM155] (first compound 0.075 µM, partner dose 0.002 µM) here?
A: 37.8%

Q: Which cell count does the source give for Cn1cnc2c(F)c(Nc3ccc(Br)cc3Cl)c(C(=O)NOCCO)cc21 [selumetinib] + NC1(c2ccc(-c3nc4ccn5c(=O)[nH]nc5c4cc3-c3ccccc3)cc2)CCC1 [MK2206] (first compound 0.075 µM, partner dose 2 µM) here?
A: 51%

Q: COc1cc([C@@H]2c3cc4c(cc3[C@@H](O[C@@H]3O[C@@H]5CO[C@@H](C)O[C@H]5[C@H](O)[C@H]3O)[C@H]3COC(=O)[C@H]23)OCO4)cc(OC)c1O [etoposide] + COc1cc(Nc2ncc(F)c(Nc3ccc4c(n3)NC(=O)C(C)(C)O4)n2)cc(OC)c1OC [Tamatinib] (first compound 0.1 µM, partner dose 2 µM) was tested. Which cell count did it give?
A: 68.3%

Q: With Cn1cnc2c(F)c(Nc3ccc(Br)cc3Cl)c(C(=O)NOCCO)cc21 [selumetinib] + CC(C)C[C@H](NC(=O)[C@H](Cc1ccccc1)NC(=O)c1cnccn1)B(O)O [Bortezomib] (first compound 0.075 µM, partner dose 0.005 µM) as the compound, how does the cell count read?
A: 8.18%

Q: With COc1cc([C@@H]2c3cc4c(cc3[C@@H](O[C@@H]3O[C@@H]5CO[C@@H](C)O[C@H]5[C@H](O)[C@H]3O)[C@H]3COC(=O)[C@H]23)OCO4)cc(OC)c1O [etoposide] + Oc1nc(-c2ccc(C(F)(F)F)cc2)nc2c1CSCC2 [XAV939] (first compound 0.1 µM, partner dose 10 µM) as the compound, how does the cell count read?
A: 73.3%

Q: Which cell count does the source give for COc1cc([C@@H]2c3cc4c(cc3[C@@H](O[C@@H]3O[C@@H]5CO[C@@H](C)O[C@H]5[C@H](O)[C@H]3O)[C@H]3COC(=O)[C@H]23)OCO4)cc(OC)c1O [etoposide] + COc1ccc(C2=N[C@@H](c3ccc(Cl)cc3)[C@@H](c3ccc(Cl)cc3)N2C(=O)N2CCNC(=O)C2)c(OC(C)C)c1 [Nutlin-3] (first compound 0.1 µM, partner dose 0.5 µM) here?
A: 76.2%

Q: For Cn1cnc2c(F)c(Nc3ccc(Br)cc3Cl)c(C(=O)NOCCO)cc21 [selumetinib] + COc1ccc(COc2ccc(Cc3cnc(N)nc3N)cc2OC)cc1 [GW2580] (first compound 0.075 µM, partner dose 5 µM), which cell count is on record?
A: 53.6%

Q: With C[C@]1(O)C[C@@H](c2nc(-c3ccc4ccc(-c5ccccc5)nc4c3)c3c(N)nccn32)C1 + Cn1c(=O)n(-c2ccc(C(C)(C)C#N)cc2)c2c3cc(-c4cnc5ccccc5c4)ccc3ncc21 [NVP-BEZ235] (first compound 2 µM, partner dose 0.02 µM) as the compound, how does the cell count read?
A: 66%
